# According to the supplement of paper PMC10185492:
# Some of the results follow. These are enrichments in a pooled selection; single values are uncertain.
# System: SARS-CoV-2 3CLpro (nsp5)
# Assay: substrate phage enrichment score (protease-eluted vs HEPES control, +1 offset) (ratio); higher = better cleaved substrate
# Settings: selection round: 3; protease elution time: 0.5 h
# Procedure: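 Random heptapeptide substrate phage display (M13 pIII fusion, heptapeptide between an N-terminal biotinylated AviTag GLNDIFEAQKIEWHE and pIII; phages immobilised on streptavidin) eluted by cleavage with 50 nM protease in 20 mM HEPES at 37 °C. Selected phages were NGS sequenced, and the enrichment score is (reads in protease sample + 1)/(reads in HEPES blank-selection control + 1).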
row,Substance,substrate phage enrichment score
1,RYIQSTT,8.5
2,ACAAAHH,0.391
3,NRGGLKQ,16
4,TNKWNVG,5.25
5,VQTRLQS,31
6,NATAHHH,2.58
7,TPCRLQH,> 22
8,HWTREYG,> 26
9,CTGYCYS,4.8
10,GDEMNPA,2.86
11,YDVQKIR,0.947
12,SATQTTS,10.3
13,KYAPSSS,> 26
14,LHFQGGS,1.36
15,RPAASRQ,2.83
16,AKRGELR,2.69
17,HRAGYMH,2.2
18,AHATFEL,> 21
19,IRSGDKQ,> 24
20,PKLQSHQ,> 24
21,CVHATSS,6.6
22,ASTSWVK,2.8
23,SAAAHHR,1.2

row,Substance,substrate phage enrichment score
1,VMWCLHG,> 26
2,ETAAHHH,1.74
3,ESEQMSP,1.56
4,STAHHHH,0.84
5,SWAAHHH,1.29
6,QSPNSSG,> 33
7,NTAAHHH,1.03
8,RGCTWSE,> 62
9,VAKPQST,4.5
10,IKAAHHH,0.85
11,AYKATLQ,> 38
12,SRVKAHT,2.14
13,LEFDLTT,> 21
14,FPAAHHH,1.36
15,ECKVQLN,11.7
16,KPFPQPR,1.3
17,RDACFLT,1.9
18,TDLNGTQ,> 27
19,GDKAVMH,> 42
20,RGIVMQS,10.7
21,MSTRLQC,> 79
22,RAPTAAD,26.5
23,GLPASRL,> 21

row,Substance,substrate phage enrichment score
1,NQWNEGY,> 25
2,RVVVRPH,1.44
3,AESMESR,> 26
4,SQTSRMQ,10.5
5,VKCPGTD,4.5
6,ELYFQGG,0.977
7,GCTLPRS,17
8,INSGPLR,30
9,SPAHHHH,1
10,MYFQGGS,1.29
11,NKPVRLH,> 28
12,KKQSIMG,> 21
13,EELREVH,1
14,VAQLEAR,0.923
15,SDAAHHH,1.86
16,NYVTRLQ,> 48
17,AGAAAHH,0.667
18,VRCCCPV,0.211
19,KTGDGCV,0.75
20,AKCQTPR,> 32
21,MNHGVLQ,> 30
22,DDKSLLH,2.53
23,HMSNHHH,> 21

row,Substance,substrate phage enrichment score
1,GIYDMRD,1
2,RDAAHHH,0.583
3,WCTVSDR,> 44
4,HRHIGEQ,11.3
5,SEQLSAP,0.957
6,CERFQGY,1.43
7,STRVLRC,8.33
8,PRTQMSR,11.5
9,ASQAALQ,> 30
10,NKAAHHH,1.37
11,DCWTDRD,0.929
12,AAAHNHH,1.18
13,ARERVPG,> 36
14,HQPIHAP,> 21
15,ARCVLQY,> 22
16,AIRFEGD,0.667
17,AGHVNLQ,29.5
18,MTSDLVG,7.33
19,AGVSKLH,> 48
20,KPSSLQS,34.8
21,DKVNESR,2.73
22,RSHSTVQ,> 35
23,TGGSAAA,0.583

row,Substance,substrate phage enrichment score
1,LYYQGGS,1.2
2,GRAAHHH,1.3
3,VMFQADF,> 28
4,FKPLAHK,4.17
5,RHLTGGQ,1.78
6,AARLQCS,> 67
7,HHHGELR,33.7
8,TYLQGGS,74.5
9,TDHDRQY,4.83
10,NSFTTLQ,> 22
11,WCHQEFP,> 25
12,VLSPQTK,> 30
13,PQVEQPY,6.33
14,NKPDLIW,> 22
15,HTKPAAR,12
16,HKRCQFW,3.86
17,HGNSAGS,1.82
18,VSRDPAP,> 51
19,HFSEFGR,> 53
20,PQLKSLD,1.62
21,PGSQMHC,1.76
22,ESRGMPN,4.4
23,PGQTCRR,0.906

row,Substance,substrate phage enrichment score
1,VSFQGGS,2.57
2,DRAGTDH,0.737
3,KGGSAAA,1.24
4,GQAAHHH,1.27
5,RAKCTYH,> 25
6,SKLQGAN,18.5
7,CVPTAKG,1.9
8,IKHELSC,2
9,GAKVQLQ,> 25
10,CSKETRG,> 22
11,WGAPTSK,> 24
12,QGRSSTT,1.3
13,SKLPVSS,> 26
14,RKEAIAP,> 26
15,ERNCRLQ,> 33
16,IAAAHHH,1.02
17,RCRHLEA,3
18,TDSTSAN,> 30
19,APDRASC,> 26
20,NAVLHGQ,> 24
21,LPNFQGG,13.5
22,SKKSSHE,1.18
23,TNLSNSL,4.83

row,Substance,substrate phage enrichment score
1,AKLTPEH,0.619
2,ADAHHHH,0.533
3,RLPTVFE,1.96
4,QNLMCHY,4.57
5,SQGGSAA,0.73
6,ARGVHLQ,> 52
7,HGTNVFR,> 31
8,ASNPASL,6.33
9,VANTYGC,26
10,RTLSPLT,> 22
11,AGTPRAK,> 23
12,SDRVWLQ,> 31
13,RDIRHSR,> 29
14,PQVIEQH,2.19
15,EMYFQGG,0.739
16,LISDNLP,> 31
17,NATQPTR,3.5
18,SIEHFQG,7
19,WPPVQLQ,> 94
20,GGAAHHH,0.75
21,VPDKSSR,6.67
22,ESASILQ,> 134
23,LVTPWSH,1.75

row,Substance,substrate phage enrichment score
1,TPTAASQ,> 28
2,FDQKKAP,1.5
3,AECCGMP,> 32
4,CSPRSRP,> 35
5,SGNSRLN,> 36
6,ISAPEAH,1.5
7,AGGCVRD,0.412
8,GYHASCQ,0.588
9,CKLQCSN,> 21
10,QVPVSMH,42
11,PTDVGAR,> 23
12,TQMCPRP,2.57
13,AWPSVVP,> 61
14,QIQCATQ,18.5
15,QEPAMTA,0.706
16,AIAAPFR,> 22
17,DSDQKLI,11.5
18,RAVPASM,> 25
19,KHGDAYT,> 23
20,YPSESMK,> 36
21,SDCLTDR,3.57
22,THERTDT,1.79
23,RHLNALQ,> 42
